The campaign covered roughly 39,000 compounds. About 220 (0.56%) showed activity. The list shows a part of the results.
The molecules below were run on Escherichia coli K-12 BW25113 (assay: relative growth (OD600 normalised to plate interquartile mean) (fraction); higher = less growth inhibition, active = 0.2 or less). Details: 50 µM; LB; incubation time: overnight (16-24 h).
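Also: static incubation at 37 °C against the wild-type strain, values averaged over two biological replicates.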

SMILES | relative growth
C[C@@H]1CCCCO[C@H](CN(C)Cc2ccncc2)[C@H](C)CN([C@@H](C)CO)C(=O)c2cc(NC(=O)Nc3cccc4ccccc34)ccc2O1 | inactive: 0.957
Cc1noc(C)c1NC(=O)Nc1ccc2c(c1)C(=O)N([C@@H](C)CO)C[C@H](C)[C@H](CN(C)Cc1ccccc1)OCCCC[C@H](C)O2 | inactive: 1.01
O=c1c2ccccc2oc2ccc(O)cc12 | inactive: 1.11
Cc1noc(C)c1NC(=O)Nc1ccc2c(c1)C(=O)N([C@@H](C)CO)C[C@H](C)[C@@H](CN(C)C(=O)NC1CCCCC1)OCCCC[C@H](C)O2 | inactive: 1.01
O=C(N[C@H]1CC[C@@H](CCn2cc(C3(O)CCCC3)nn2)O[C@@H]1CO)C1CCOCC1 | inactive: 0.878
C[C@@H]1CCCCO[C@@H](CN(C)Cc2ccc(C(=O)Nc3ccccc3N)cc2)[C@@H](C)CN([C@H](C)CO)C(=O)c2cc(NC(=O)C3CCCCC3)ccc2O1 | inactive: 0.943
CC(C)(O)[C@@H](O)Cc1cc(O)ccc1O[C@H]1O[C@@H](CO)[C@@H](O)[C@@H](O)[C@@H]1O | inactive: 0.993
O=c1cc(-c2ccc(O)cc2)oc2cc(O)ccc12 | inactive: 1.09
C[C@@H]1CCCCO[C@H](CN(C)Cc2ccc3c(c2)OCO3)[C@H](C)CN([C@H](C)CO)C(=O)c2cc(NC(=O)Nc3ccc(F)cc3)ccc2O1 | inactive: 1.03
O=C(CCCCCCC(=O)Nc1ccc([C@H]2O[C@@H](CSc3nc(-c4ccccc4)c(-c4ccccc4)o3)C[C@H](c3ccccc3)O2)cc1)NO | inactive: 0.985
CC(C)NC(=O)Nc1ccc2c(c1)C(=O)N([C@H](C)CO)C[C@H](C)[C@H](CN(C)S(C)(=O)=O)OCCCC[C@@H](C)O2 | inactive: 0.996
Cc1ccc(S(=O)(=O)N(C)C[C@H]2Oc3ncc(Br)cc3C(=O)N([C@H](C)CO)C[C@@H]2C)cc1 | inactive: 1.01
COc1ccc(CN(C)C[C@@H]2OCCCC[C@H](C)Oc3ccc(NC(=O)Nc4c(C)noc4C)cc3C(=O)N([C@H](C)CO)C[C@H]2C)cc1 | inactive: 1.01
C[C@H]1CN([C@@H](C)CO)C(=O)c2cc(NC(=O)C3CC3)ccc2O[C@H]1CN(C)S(=O)(=O)c1ccc(Cl)cc1 | inactive: 0.997
C[C@H]1CN([C@@H](C)CO)C(=O)c2cc(C#CC3(O)CCCC3)cnc2O[C@H]1CN(C)C(=O)Cc1ccncc1 | inactive: 1.03
COc1ccc(S(=O)(=O)Nc2ccc3c(c2)C(=O)N([C@@H](C)CO)C[C@H](C)[C@H](CN(C)S(=O)(=O)c2cn(C)cn2)OCCCC[C@@H](C)O3)cc1 | inactive: 0.997
C[C@H](CO)N1C[C@H](C)[C@@H](CN(C)C(=O)C2CCC2)Oc2cc(-c3ccc(C(=O)N(C)C)cc3)ccc2S1(=O)=O | inactive: 1.02
COc1cc(C(=O)NS(=O)(=O)c2ccccc2C)ccc1Cc1cn(C)c2ccc(NC(=O)OC3CCCC3)cc12 | inactive: 1.01
O=C(C[C@H]1CC[C@H]2[C@@H](COC[C@H](O)CN2C(=O)c2ccncc2)O1)NC1CCC1 | inactive: 0.972
COc1ccc(NC(=O)N(C)C[C@H]2Oc3ccc(NC(=O)CCCCCC(=O)Nc4ccccc4N)cc3C(=O)N([C@@H](C)CO)C[C@H]2C)cc1 | inactive: 1.01
C[C@H](CO)N1C[C@H](C)[C@H](CN(C)S(=O)(=O)c2ccccc2)Oc2ncc(C#Cc3ccccc3)cc2C1=O | inactive: 1.03
O=C(C[C@H]1CC[C@H]2[C@@H](COC[C@@H](O)CN2C(=O)c2ccncc2)O1)NC1CCC1 | inactive: 1.01
CN1CCN(C(=O)CC#N)CC1 | inactive: 0.925
C[C@@H]1CCCCO[C@@H](CN(C)S(=O)(=O)c2ccc(F)cc2)[C@@H](C)CN([C@H](C)CO)C(=O)c2cc(NC(=O)Nc3ccc4c(c3)OCO4)ccc2O1 | inactive: 0.975
CCOC(=O)c1c(CN2CCN(Cc3ccccc3)CC2)n(-c2ccccc2)c2cc(Br)c(O)cc12 | inactive: 1.01
C[C@H](CO)N1C[C@H](C)[C@@H](CN(C)C(=O)c2ccccn2)Oc2cc(C#Cc3ccc(F)cc3)ccc2S1(=O)=O | inactive: 1.03
CCC(=O)N[C@H]1CC[C@@H](CC(=O)OC)O[C@@H]1CO | inactive: 0.935
C[C@@H]1CCCCO[C@H](CN(C)C(=O)NC2CCCCC2)[C@@H](C)CN([C@H](C)CO)C(=O)c2cc(NC(=O)C3CCCCC3)ccc2O1 | inactive: 1.03

SMILES | relative growth
Cc1c(C)c2c(c(C)c1OC(=O)CCC(=O)OCCO)CC[C@@](C)(CCC[C@H](C)CCC[C@H](C)CCCC(C)C)O2 | inactive: 0.921
C[C@@H]1CCCCO[C@H](CN(C)S(=O)(=O)c2ccc(Cl)cc2)[C@@H](C)CN([C@H](C)CO)C(=O)c2cc(NC(=O)c3ccccc3)ccc2O1 | inactive: 1.01
C=CCOC(=O)[C@H]1[C@@H]2C(=O)O[C@@H](c3ccccc3)[C@@H](c3ccccc3)N2[C@@H](c2ccc(OCCOC(=O)[C@@H]3C[C@@H]4C(=O)NCC(=O)N4[C@@H]3c3cccc(OCCO)c3)cc2)[C@]12C(=O)Nc1ccc(I)cc12 | inactive: 1.06
C[C@@H]1CN([C@H](C)CO)C(=O)Cc2cc(NS(=O)(=O)c3ccc(F)cc3)ccc2O[C@@H]1CN(C)S(=O)(=O)c1cn(C)cn1 | inactive: 1
COc1ccc2c3c([nH]c2c1)[C@H](CO)N(C[C@]13CN(C)C1)C(=O)CN1CCOCC1 | inactive: 1.04
C[C@@H]1CN([C@H](C)CO)C(=O)c2cc(NC(=O)Nc3ccc(C(F)(F)F)cc3)ccc2O[C@H]1CN(C)C(=O)Nc1ccc(F)cc1 | inactive: 1.02
CC(C)NC(=O)N(C)C[C@@H]1OCCCC[C@@H](C)Oc2ccc(NS(=O)(=O)c3cn(C)cn3)cc2C(=O)N([C@H](C)CO)C[C@@H]1C | inactive: 0.973
COc1ccc(NC(=O)Nc2ccc3c(c2)C(=O)N([C@@H](C)CO)C[C@@H](C)[C@@H](CN(C)C(=O)CCC(F)(F)F)OCCCC[C@H](C)O3)cc1 | inactive: 1.02
C[C@@H]1CN([C@@H](C)CO)C(=O)c2cc(NC(=O)NC3CCCCC3)ccc2O[C@@H](C)CCCCO[C@H]1CN(C)C(=O)Nc1ccc2c(c1)OCO2 | inactive: 1.02
Cc1ccc(S(=O)(=O)N2C[C@H](O)COC[C@@H]3O[C@@H](CC(=O)NCCN4CCCCC4)CC[C@H]32)cc1 | inactive: 1.02
C[C@@H]1CN([C@@H](C)CO)C(=O)c2cccc(NS(=O)(=O)c3ccc(F)cc3)c2O[C@@H]1CN(C)S(=O)(=O)c1cn(C)cn1 | inactive: 1.02
COCC(=O)N1C[C@@H](C)[C@H](OC)CN(C)C(=O)c2cc(NC(=O)c3ccc(OC)cc3)ccc2OC[C@H]1C | inactive: 0.987
Cc1ccc(S(=O)(=O)Nc2ccc3c(c2)C(=O)N([C@H](C)CO)C[C@@H](C)[C@@H](CN(C)C(=O)NC2CCCCC2)OCCCC[C@@H](C)O3)cc1 | inactive: 1.01
C[C@H](CO)N1C[C@H](C)[C@@H](CN(C)Cc2ccc(C(F)(F)F)cc2)Oc2c(NC(=O)CCCCCC(=O)Nc3ccccc3N)cccc2C1=O | inactive: 0.99
COc1ccc(NC(=O)Nc2ccc3c(c2)CC(=O)N([C@H](C)CO)C[C@@H](C)[C@@H](CN(C)CC2CCCCC2)O3)cc1 | inactive: 0.977
C[C@@H]1CN([C@@H](C)CO)C(=O)c2cccc(NC(=O)Nc3cccc4ccccc34)c2O[C@H]1CN(C)C(=O)Nc1ccc2c(c1)OCO2 | inactive: 1
C[C@@H]1CCCCO[C@@H](CN(C)S(=O)(=O)c2ccc(F)cc2)[C@@H](C)CN([C@@H](C)CO)C(=O)c2cc(NC(=O)C3CCCCC3)ccc2O1 | inactive: 0.986
C[C@H](CO)N1C[C@H](C)[C@H](CN(C)S(C)(=O)=O)OCc2cn(nn2)CCCC1=O | inactive: 0.979
COCC(=O)N(C)C[C@H]1Oc2cc(C#C[C@@H](C)O)ccc2S(=O)(=O)N([C@@H](C)CO)C[C@H]1C | inactive: 0.966
COC(=O)C1=C(C)NC(C)=C(C(=O)OCC(C)C)C1c1ccccc1[N+](=O)[O-] (stereo not given) | inactive: 0.849
C=CCOC(=O)[C@H]1[C@@H]2C(=O)O[C@@H](c3ccccc3)[C@@H](c3ccccc3)N2[C@@H](c2ccc(OCCOC(=O)[C@@H]3C[C@@H]4C(=O)N[C@@H](CC(C)C)C(=O)N4[C@@H]3c3ccc(O)cc3)cc2)[C@]12C(=O)Nc1ccccc12 | inactive: 1.07
C[C@H](CO)N1C[C@H](C)[C@@H](CN(C)C(=O)Nc2ccccc2)Oc2ccc(NC(=O)CCCCCC(=O)Nc3ccccc3N)cc2C1=O | inactive: 0.945
C[C@@H]1CN([C@H](C)CO)C(=O)Cc2cc(N(C)C)ccc2O[C@H]1CN(C)C(=O)Nc1ccc2c(c1)OCO2 | inactive: 0.983
O=C(C[C@@H]1C[C@H]2c3cc(NS(=O)(=O)c4ccc(F)cc4)ccc3O[C@H]2[C@@H](CO)O1)NCc1cccc(F)c1 | inactive: 0.98
Cc1noc(C)c1S(=O)(=O)Nc1ccc2c(c1)CC(=O)N([C@H](C)CO)C[C@H](C)[C@@H](CN(C)S(=O)(=O)c1ccc(F)cc1)O2 | inactive: 0.972
C=CCOC(=O)[C@@H]1[C@H]2C(=O)O[C@H](c3ccccc3)[C@H](c3ccccc3)N2[C@H](c2ccc(OCCOC(=O)[C@@H]3C[C@@H]4C(=O)N[C@@H](Cc5ccccc5)C(=O)N4[C@@H]3c3ccc(O)cc3)cc2)[C@@]12C(=O)Nc1ccccc12 | inactive: 1.06
COc1cccc(C#Cc2ccc3c(c2)O[C@@H](CN(C)C(C)=O)[C@@H](C)CN([C@H](C)CO)S3(=O)=O)c1 | inactive: 1.03
